Data as given in the supplement of paper PMC3334620.
Whole data set: some 33,000 sequences, median “E-score (-0.5 to 0.5)” near -0.056, cut for the highest 2% near 0.38. This is one part of the list.

molecular target: Stb4 (UniProt P50104); test: PBM E-score (8-mer binding enrichment) (E-score (-0.5 to 0.5)); higher = stronger / more preferred TF binding; most listed sequences are background and not binding sites; conditions: protein concentration: 200 nM; construct: GST-DNA-binding domain
Method in brief: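 Using PURExpress in vitro transcription/translation, GST-tagged yeast transcription factors were made in full-length or DNA-binding-domain form. These were applied at about 100-200 nM to double-stranded universal all-10-mer Agilent arrays, and bound protein was detected with fluorescent anti-GST. Scans were normalised with masliner before the Universal PBM Analysis Suite assigned E-scores to ungapped eight-base words pooled with their reverse complements.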

Sequence	PBM E-score
ACTGATTG	-0.188
AACCTATT	0.0723
AGGGAACG	0.0299
GAGTAAAC	0.137
GTTAGAAC	0.0221
AGCTCGGG	0.443
ATTACGTA	0.0546
GCGATGTA	-0.0672
AATCAGTA	-0.0762
AGTCTGTG	-0.229
ACCTCTGC	-0.229
GGACGTGA	-0.0585
AGTACCAG	0.0913
AATGCTTC	0.11
CGTTTGGA	-0.144
CTTTGGCC	0.0279
TAACCGGA	0.355
CACTACAC	-0.153
AAGCTGCG	-0.102
CGGGCATA	0.19
AATGAGAC	-0.15
TCAACCAA	-0.0982

Sequence	PBM E-score
GTGGTTCA	-0.0282
ACCTTGAT	-0.0747
TGATGTAA	-0.174
GCGAACAA	-0.0836
CCGGGGTA	0.155
CCAGGGGG	-0.248
ACTGGCCC	0.0389
AATGTGGG	-0.127
AAGAGACA	0.0356
ACCGCCCA	0.0163
AACAGGGC	-0.145
GCGTCTCA	-0.163
AACCAAAG	-0.287
CCACGGCC	-0.0994
CTCAAATC	-0.119
CAAACCTA	-0.198
AGCATTCC	0.135
CAACATAG	-0.207
CTTTTTTA	-0.00601
TTACCGAA	0.424
ACCTACTA	-0.13
ACTGTGAG	-0.00286

Sequence	PBM E-score
CTATCACA	-0.0922
GCTTACCA	-0.058
TGATATCA	-0.281
ATAGGATC	-0.0358
ATTATGCG	0.146
AGCTATGC	-0.395
CAATGGCA	-0.0166
CATCTGAC	-0.159
CTACTTAC	-0.0829
AACTATCC	0.216
AATTCTGT	0.0256
AACAATTA	0.122
GGTGGGAC	-0.0489
GCCGAACC	0.395
AATCCGCG	0.127
CGATCGAA	-0.0746
ATGGCGCA	0.0376
ACTATTTA	0.0934
AGCCGGGG	0.2
CACATAGC	-0.125
GAGTAGTA	-0.103
CCAGTACC	-0.0527

Sequence	PBM E-score
CCTACCCG	0.358
GCGTTTCA	-0.0555
ACTGAAAG	0.00649
GGTGTCCA	-0.0527
CCAGCGTA	-0.12
CCCTTGGA	-0.11
ATTACACC	0.0272
CTACGCAC	-0.122
CGTTACAC	0.039
GAAGCTTC	0.216
GGTTAGCA	0.00469
CCGAGGTA	0.401
GGCATCCA	-0.146
GAATTCAA	0.169
AAAAATGC	0.147
CAAAGTCA	-0.161
AGATGCAC	-0.146
CTATTCGA	-0.224
CTTGCCGC	0.18
CAGCACTA	-0.239
